# B1: hB07v15 (Fc fusion)
# chain: EVQLVESGGGLVQPGGSLRLSCAASGLTSDTGGMGWFRQAPGKELEWVSAITWSGRHTLYADSVKGRFTISRDKSKNTVYLQMNSLRAEDTAVYYCALDVVGIGIEVQTYDYWGQGTLVTVSSGGGGAS[sequence of human IgG1 Fc with changes omitted]
# notes: Humanized B07 VHH (hu VH3; 37F, 44E, 73K, 78V) fused to human IgG1 Fc
# B2: hB07v9 (Fc fusion)
# chain: EVQLVESGGGLVQPGGSLRLSCAASGLTSDTGGMGWFRQAPGKGLEWVSAITWSGRHTLYADSVKGRFTISRDKSKNTVYLQMNSLRAEDTAVYYCALDVVGIGIEVQTYDYWGQGTLVTVSSGGGGAS[sequence of human IgG1 Fc with changes omitted]
# notes: Humanized B07 VHH (hu VH3; 37F, 73K, 78V) fused to human IgG1 Fc
# B3: hB07v11 (Fc fusion)
# chain: EVQLVESGGGLVQPGGSLRLSCAASGLTSDTGGMGWFRQAPGKGREWVSAITWSGRHTLYADSVKGRFTISRDNSKNTVYLQMNSLRAEDTAVYYCALDVVGIGIEVQTYDYWGQGTLVTVSSGGGGAS[sequence of human IgG1 Fc with changes omitted]
# notes: Humanized B07 VHH (hu VH3; 37F, 45R, 78V) fused to human IgG1 Fc
# B4: hB07v10 (Fc fusion)
# chain: EVQLVESGGGLVQPGGSLRLSCAASGLTSDTGGMGWFRQAPGKELEWVSAITWSGRHTLYADSVKGRFTISRDNSKNTVYLQMNSLRAEDTAVYYCALDVVGIGIEVQTYDYWGQGTLVTVSSGGGGAS[sequence of human IgG1 Fc with changes omitted]
# notes: Humanized B07 VHH (hu VH3; 37F, 44E, 78V) fused to human IgG1 Fc
# B5: hB07v4 (Fc fusion)
# chain: EVQLVESGGGLVQPGGSLRLSCAASGLTSDTGGMGWFRQAPGKGREWVSAITWSGRHTLYADSVKGRFTISRDNSKNTLYLQMNSLRAEDTAVYYCALDVVGIGIEVQTYDYWGQGTLVTVSSGGGGAS[sequence of human IgG1 Fc with changes omitted]
# notes: Humanized B07 VHH (hu VH3; 37F, 45R) fused to human IgG1 Fc
# B6: hB07v5 (Fc fusion)
# chain: EVQLVESGGGLVQPGGSLRLSCAASGLTSDTGGMGWFRQAPGKEREWVSAITWSGRHTLYADSVKGRFTISRDNSKNTLYLQMNSLRAEDTAVYYCALDVVGIGIEVQTYDYWGQGTLVTVSSGGGGAS[sequence of human IgG1 Fc with changes omitted]
# notes: Humanized B07 VHH (hu VH3; 37F, 44E, 45R) fused to human IgG1 Fc
# B7: hB07v14 (Fc fusion)
# chain: EVQLVESGGGLVQPGGSLRLSCAASGLTSDTGGMGWFRQAPGKGLEWVSAITWSGRHTLYADSVKGRFTISRDNSKNTVYLQMNSLRAEDTAVYYCALDVVGIGIEVQTYDYWGQGTLVTVSSGGGGAS[sequence of human IgG1 Fc with changes omitted]
# notes: Humanized B07 VHH (hu VH3; 37F, 78V) fused to human IgG1 Fc
# B8: hB07v16 (Fc fusion)
# chain: EVQLVESGGGLVQPGGSLRLSCAASGLTSDTGGMGWFRQAPGKGREWVSAITWSGRHTLYADSVKGRFTISRDKSKNTVYLQMNSLRAEDTAVYYCALDVVGIGIEVQTYDYWGQGTLVTVSSGGGGAS[sequence of human IgG1 Fc with changes omitted]
# notes: Humanized B07 VHH (hu VH3; 37F, 45R, 73K, 78V) fused to human IgG1 Fc
# B9: hB07v3 (Fc fusion)
# chain: EVQLVESGGGLVQPGGSLRLSCAASGLTSDTGGMGWFRQAPGKELEWVSAITWSGRHTLYADSVKGRFTISRDNSKNTLYLQMNSLRAEDTAVYYCALDVVGIGIEVQTYDYWGQGTLVTVSSGGGGAS[sequence of human IgG1 Fc with changes omitted]
# notes: Humanized B07 VHH (hu VH3; 37F, 44E) fused to human IgG1 Fc
# B10: hB07v2 (Fc fusion)
# chain: EVQLVESGGGLVQPGGSLRLSCAASGLTSDTGGMGWFRQAPGKGLEWVSAITWSGRHTLYADSVKGRFTISRDNSKNTLYLQMNSLRAEDTAVYYCALDVVGIGIEVQTYDYWGQGTLVTVSSGGGGAS[sequence of human IgG1 Fc with changes omitted]
# notes: Humanized B07 VHH (hu VH3; 37F) fused to human IgG1 Fc
# B11: hB07v12 (Fc fusion)
# chain: EVQLVESGGGLVQPGGSLRLSCAASGLTSDTGGMGWFRQAPGKEREWVSAITWSGRHTLYADSVKGRFTISRDNSKNTVYLQMNSLRAEDTAVYYCALDVVGIGIEVQTYDYWGQGTLVTVSSGGGGAS[sequence of human IgG1 Fc with changes omitted]
# notes: Humanized B07 VHH (hu VH3; 37F, 44E, 45R, 78V) fused to human IgG1 Fc
# B12: A08 VHH-Fc (Fc fusion)
# chain: QVQLVESGGGVVQPGGSLRLSCAASGSTLDHYAIGWFRQAPGKEREGVSCISRSDGITYYADSVKGRFTISRDNAKNTVYLQMNSLKPEDTAVYYCAAHYGPNVCRGWLWEPPISGSWGQGTQVTVSSAS[sequence of human IgG1 Fc with changes omitted]
# B13: D10 VHH-Fc (Fc fusion)
# chain: QLQLVESGGGLVKTGGSLRLSCTDSGRDYNHFQRAWFRQAPGKEREFVARITWSGTITYNESVKGRFTISGDDASNTIHLQMNSLKSDDTAIYYCALKTQPPLSQDAGDYTYWGQGTQVTVSSAS[sequence of human IgG1 Fc with changes omitted]
# B14: E06 VHH-Fc (Fc fusion)
# chain: QLQLVESGGGLVQPGGSLRLSCAGSGRSLSTYVMGWFRQAPGKERELVAARNGMSTYYTDSVKDRSAISRDNAKNTVYLEMNSLEPEDTAVYYCAGDRSWSRLLRGEYEYWGQGTQVTVSSAS[sequence of human IgG1 Fc with changes omitted]
# B15: B02 VHH-Fc (Fc fusion)
# chain: QVQLVESGGGLVQAGGSLRLSCAASESAFSLNAIGWYRQAPGNQRELVAGIGTDGITTYYADFVKDRFTISRDNVKNTVYLQMNSLKPEDTAVYYCNAGSWRTVLSGTHVSRSWGPGTQVTVSSAS[sequence of human IgG1 Fc with changes omitted]
# B16: E10 VHH-Fc (Fc fusion)
# chain: QVQLVESGGGLVQPGGSLRLSCTTSGSTLDDYAIGWFRQAPGKEREGVSCISSSDGITFYGDFVKGRFTISRDNAKNSVYLQMNNLKPEDTAVYYCAAKYGPNICRGWLWVPPVSGSWGQGTQVTVSSAS[sequence of human IgG1 Fc with changes omitted]
# B17: A04 VHH-Fc (Fc fusion)
# chain: QLQLVESGGGLVQPGESLRLSCVPSGFTLDYFAIAWFRQAPGKEREGVSCISSGDGRTFYADSVKGRFTISRDNSKNTVYLQMNSLKPEDTAVYYCASHDGPNVCRGWLWVPQLSGSWGQGTQVTVSSAS[sequence of human IgG1 Fc with changes omitted]
# Target: T1, cynomolgus transferrin receptor apical domain (cynomolgus, UniProt A0A2K5X958 198-378)
# T1 construct: domain: apical domain; Soluble analyte in SPR; also called cyTfR-AD; cyno TfR apical domain
# Assay: SPR (Biacore 8K), VHH-Fc captured, TfR apical domain as analyte
# Description: (§1) A set of experiments was performed to assess the binding affinities of VHH-Fc fusions for human and cyno TfR apical domain. In these experiments, binding affinities were determined by surface plasmon resonance using a Biacore™ 8K instrument in 1×HBS-EP+running buffer (GE Healthcare Cat. No. BR100669). Biacore™ Series S CM5 sensor chips were treated with a Human antibody capture kit (GE Healthcare, Cat. No. BR100839). VHH-Fc fusions were captured on each flow cell and serial 3-fold dilutions of human and cyno TfR apical domain (300, 100, 33, 11, 3.7, and 0 nM) were injected at a flow rate of 30 μL/min using the multi cycle kinetics method. Each sample was analyzed with a 270-second association and a 10-minute dissociation. Some VHH-Fc fusions were measured with serial 3-fold dilutions of human and cyno TfR apical domain (100, 33, 11, and 0 nM) with a 300-second association and 10-minute dissociation. After each cycle, the chip was regenerated using 3 M magnesium chloride for 30 seconds at 50 μL/minute. Binding response was corrected by subtracting the RU from a reference flow cell. A 1:1 Langmuir model of simultaneous fitting of kₒₙ and koff was used for kinetics analysis using Biacore™ 8K Evaluation Software.
# T1 sequence (A0A2K5X958 entry or part of it): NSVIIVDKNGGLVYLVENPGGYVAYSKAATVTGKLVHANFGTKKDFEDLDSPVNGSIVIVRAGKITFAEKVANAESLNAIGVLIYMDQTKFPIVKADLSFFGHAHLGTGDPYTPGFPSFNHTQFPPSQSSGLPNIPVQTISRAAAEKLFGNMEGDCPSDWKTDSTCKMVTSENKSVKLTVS
row,Kd,Binder
1,1.9 nM,B1
2,1.5 nM,B2
3,4.2 nM,B3
4,3.1 nM,B4
5,13.4 nM,B5
6,13.8 nM,B6
7,2.9 nM,B7
8,3.3 nM,B8
9,9.5 nM,B9
10,9 nM,B10
11,4.3 nM,B11

# Target: T2, human transferrin receptor apical domain (human, UniProt P02786 198-378, limits assumed)
# T2 construct: domain: apical domain; Soluble analyte in SPR; also called huTfR-AD; human TfR apical domain
# Assay: as above
# Description: as §1
row,Kd,Binder
1,0.8 nM,B1
2,1.3 nM,B2
3,2 nM,B3
4,1.3 nM,B4
5,7 nM,B5
6,6.7 nM,B6
7,1.3 nM,B7
8,1.1 nM,B8
9,4 nM,B9
10,4 nM,B10
11,2 nM,B11

# Target: T1, cynomolgus transferrin receptor apical …
# Assay: as above
# Remark: another data set of the same source
# Description: as §1
row,Kd,Binder
1,18.3 nM,B12
2,285 nM,B13
3,1340 nM,B14
4,2500 nM,B15
5,2.07 nM,B16
6,11.8 nM,B17

# Target: T2, human transferrin receptor apical domain
# Assay: as above
# Remark: another data set of the same source
# Description: as §1
# T2 sequence (P02786 198-378 limits assumed): as the sequence (A0A2K5X958 entry or part of it) above, with G11R, D50Y, S51T, K95N, D97E, Q128R, K167R, N173S, S175N counted along it
row,Kd,Binder
1,2.72 nM,B12
2,64.1 nM,B13
3,320 nM,B14
4,985 nM,B15
5,5.79 nM,B17

# — patent US20250333528A1 (DENALI THERAPEUTICS, published 2025)
